The source of these data is ChEMBL document CHEMBL4888484, “Replenishing the malaria drug discovery pipeline: Screening and hit evaluation of the MMV Hit Generation Library 1 (HGL1) against asexual blood stage Plasmodium falciparum ,using a nano luciferase reporter read-out” (2022).

The campaign covered roughly 150,000 compounds. About 540 (0.36%) showed an effect of 50% or more. This is one part of the list.

The assay relates to Plasmodium falciparum. Briefly: Primary screen in NF54 nanoGlo assay, in single point, at 2uM, 72h; a lower Z score goes with more inhibition. In kind it is functional, Erythrocyte. To be noted: timepoint 72 hour.
The % Inhibition is the relative decrease from the control value, in per cent. As to `CN1CCN(C(=O)c2ccncc2)c2ccccc2C1`, the “% Inhibition” value is -4% and the Z score is listed as 0.52.

In the case of `Cc1cc(CNC(=O)Nc2ccccc2N2CCCC2=O)on1`, the “% Inhibition” value is recorded as -3% and the Z score is 0.38.

For the compound `COCc1ccc(C(=O)N[C@@H](C)Cc2cccc(C)n2)o1`, the “% Inhibition” value is given as -1% and the Z score was determined as 0.17.

`Cc1nccn1[C@@H](C)CC(=O)N(C)CCn1ccnc1`: the “% Inhibition” value is on record as -15% and the Z score worked out at 1.9.

As for `Cc1cccc2c1CC(C)(C)N(C(=O)Cc1ccc(C(N)=O)cc1)C2`, the “% Inhibition” value was -2% and the Z score stood at 0.4.

Regarding `Cc1ccc(C(=O)N2CC[C@H]3[C@@H](C2)NC(=O)N3C)c(C)c1`, the “% Inhibition” value came to 4% and the Z score was -0.62.

For `CCNC(=O)C[C@H]1CCCCN1C(=O)C1CCN(Cc2csc(C)n2)CC1`, the “% Inhibition” value worked out at 42% and the Z score is listed as -1.59.

On to `COc1ccccc1CN1C(=O)c2cc3occc3n2C[C@@]1(C)C(=O)NC1CCC(C)CC1` (stereo partly drawn), for which the “% Inhibition” value was -18% and the Z score is recorded as 3.16.

On to `CCc1c(C)nn(C)c1NC(=O)CCn1nnnc1C`, for which the “% Inhibition” value was -2% and the Z score was determined as 0.15.

With `Cc1nn(C)cc1CN1CCC[C@H](c2nncn2C(C)C)C1`, the “% Inhibition” value is recorded as -7% and the Z score is recorded as 0.71.

Regarding `Cc1sc(S(=O)(=O)N2CCCCCC2)cc1NC(=O)c1cccc(C(F)(F)F)c1`, the “% Inhibition” value is reported as 0% and the Z score is 0.02.

On to `CCc1cccc(NC(=O)CN(CC)CC#N)c1`, for which the “% Inhibition” value is -4% and the Z score was 0.65.

As for `O=C(CN1C(=O)N[C@]2(CCc3ccccc3C2)C1=O)NC1CC1`, the “% Inhibition” value is listed as -10% and the Z score stood at 1.85.

`COc1cccc(F)c1C(=O)N[C@H]1CC[C@@H]2CCC[C@@H]21`: the “% Inhibition” value is recorded as -18% and the Z score is recorded as 1.8.

`COc1cc(Cn2ccnc2-c2cnc(N)nc2)cc(OC)c1OC`: the “% Inhibition” value is on record as 14% and the Z score is on record as -1.77.

For `CCc1nc(C2CC2)nc(N2CCN(C(=O)c3cccs3)CC2)c1Cc1cccc(Cl)c1`, the “% Inhibition” value is -4% and the Z score amounted to 0.48.

`O=C(C1CCN(C2CCN(CCCC3CCCC3)CC2)CC1)N1CCOCC1`: the “% Inhibition” value is -1% and the Z score was found to be 0.15.

Consider `CS(=O)(=O)Cc1cc(F)ccc1N`, for which the “% Inhibition” value was found to be 0% and the Z score is -0.04.

With `O=C1[C@@H]2CCCCN2C(=O)N1c1c(F)cccc1F`, the “% Inhibition” value is -1% and the Z score is reported as 0.1.

Take `O=C(Cn1cc([C@@H](O)C2CC2)nn1)C1(c2ccccc2)CC1`: the “% Inhibition” value is recorded as -5% and the Z score came out at 0.86.

Regarding `CCc1ncc(CN[C@H]2CCCc3nc(N4CCC(CO)CC4)ncc32)cn1`, the “% Inhibition” value was -11% and the Z score stood at 1.66.

As for `O=C(NC1CCN2CCCCC12)c1cccc(F)c1` (stereo not drawn), the “% Inhibition” value was -8% and the Z score was 1.02.

Take `Cn1ccc(CCNS(=O)(=O)C2CCC(c3ccccc3)CC2)n1` (stereo not drawn): the “% Inhibition” value is listed as -8% and the Z score was determined as 1.03.

Consider `CCC(C)(C)N(C)C(=O)c1ccccc1Cl`, for which the “% Inhibition” value is given as 31% and the Z score is -4.21.

Consider `O=C(CCC1CCCCC1)Nc1ccc2c(c1)OCO2`, for which the “% Inhibition” value is given as -7% and the Z score is on record as 1.07.

On to `COc1cc2c(cc1OC)CN(C(=O)COc1nnc3ccccn13)CC2`, for which the “% Inhibition” value is given as -2% and the Z score stood at 0.17.

As for `O=C(Nc1ccc(O)cc1)Nc1cccc(-c2ncco2)c1`, the “% Inhibition” value was 5% and the Z score is given as -0.61.

On to `CN1CCC2(CC1)CC(=O)N(Cc1ccc(F)c(F)c1)C2`, for which the “% Inhibition” value was -18% and the Z score came to 1.68.

As to `O=c1[nH]c(-c2ccccc2)nc2c1CCCC2`, the “% Inhibition” value is recorded as -2% and the Z score is recorded as 0.23.

In the case of `COc1cccc(OCc2nc(C3CCOCC3)n(C3CCCCC3)n2)c1`, the “% Inhibition” value was -5% and the Z score was 0.52.

For the compound `CC(C)Cc1cn(C2CCN(C3CCCCCC3)CC2)nn1`, the “% Inhibition” value is recorded as -4% and the Z score is recorded as 0.76.

Consider `CS(=O)(=O)N(CCOCC(F)(F)F)c1ccc(Cl)cc1F`, for which the “% Inhibition” value was 0% and the Z score is recorded as -0.01.

Take `COC(=O)C1=C(C(=O)OC)SC(=C2C(=S)C(C)(C)N(C(=O)CN3C(=O)CCC3=O)c3cc(OC)ccc32)S1`: the “% Inhibition” value is 6% and the Z score was -0.71.

Regarding `Cc1cccc(C(=O)NC[C@H]2CCN(c3cnn(C)c(=O)c3)C2)c1O`, the “% Inhibition” value is given as 1% and the Z score is -0.14.

Turning to `CCN(CC)CCCNC(=O)c1ccc2ccnc(N3CCN(c4ccccc4F)CC3)c2c1`, the “% Inhibition” value was -2% and the Z score is given as 0.21.

As for `CCCN1C[C@@H]2CC[C@H]1CN(Cc1c[nH]nc1-c1cccc(F)c1)C2`, the “% Inhibition” value is 1% and the Z score is recorded as -0.17.

In the case of `CC1CC(NCc2cnc(C3CC3)nc2)C1` (stereo not drawn), the “% Inhibition” value is given as -6% and the Z score came out at 0.61.

`O=C(N1CCCC1)C1(F)CCN(Cc2cccnc2)CC1`: the “% Inhibition” value is -11% and the Z score worked out at 1.38.

In the case of `Cc1nn(C)c2nc(O[C@@H](C)C(=O)NC3CC3)cc(C(F)(F)F)c12`, the “% Inhibition” value is recorded as -8% and the Z score came out at 0.86.

Regarding `Cn1cc([C@@](C)(O)CNc2nccnc2C#N)cn1`, the “% Inhibition” value is reported as 8% and the Z score was -1.15.

With `CCN(C(=O)c1ccoc1C)c1ccccc1C`, the “% Inhibition” value is given as -5% and the Z score was determined as 0.62.

Regarding `O=C(NCCCN1CCCC1)c1ccc(CN2C(=O)CCn3nc(-c4cccc(Cl)c4)cc32)cc1`, the “% Inhibition” value is 32% and the Z score was -3.75.

`CN(C)[C@@H](CNS(=O)(=O)N(C)C)c1ccc(Cl)cc1`: the “% Inhibition” value is recorded as -2% and the Z score is recorded as 0.22.

In the case of `O=C(Nc1nnc2ccccn12)[C@H]1CC(=O)N(Cc2cccc(C(F)(F)F)c2)C1`, the “% Inhibition” value is reported as -7% and the Z score is reported as 0.96.
